# Several values for one entry are separate records, joined by “and”; a condition that tells them apart may be missing. Equal entries are not always repeated. Inconclusive results, whose numbers are uncertain, are shown with a selection of clear calls. For some assays here: Potencies of inconclusive entries are doubtful fits and often do not repeat. Activity calls are given as the source filed them. The call rests on the fitted dose curve; in most records, active means well fitted curve in the direction sought with a large enough effect; inconclusive means small, poorly fitted or top-dose-only effect, or another doubt; inactive means no such curve, though single readings can be large; an effect the other way counts as inactive or inconclusive. Where a SMILES comes first, the peptide text is derived from it. Residues, ends and D or L forms follow the SMILES beside them. [ ]: non-standard residue; d: D form. The star is where a group is joined. Sta = CC(C)C[C@H](N)[C@@H](O)CC(=O)O; Isovaleryl = CC(C)CC(=O)*
# Assays:
# SKOV3 = assay: Primary qHTS to identify gynecologic anti-cancer compounds using libraries of approved drugs and bioactive compounds (AID 1345084); details: Gynecologic cancer cell panel viability, ATPlite luminescence, 48 h; series mostly up to 57.5 µM; further: nearly all actives have a fitted effect of over 55% in size
# In short: (§1)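 In this quantitative HTS, cell killing is estimated from loss of ATP-dependent luciferase light. Cells see five compound concentrations over a 48 h exposure.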
# PA-1 = assay: as above; details: Gynecologic cancer cell panel viability, ATPlite luminescence, 48 h; series mostly up to 57.5 µM
# In short: as §1
# astro = assay: Drug repurposing screens with cells derived from glioblastoma tumor samples (AID 1345199); details: viability, ATP luminescence, 48 h; series mostly up to 45.9 µM; further: nearly all actives have a fitted effect of over 40% in size
# In short: (§2)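 Four patient lines of CD133+ GBM neurospheres were screened at several concentrations; hits were retested in those lines plus three slower-growing GBM lines, using 48-hour treatment and ATP-based viability.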
# [1] = as above; details: GBM patient neurospheres viability, ATP luminescence, 48 h; Potency: tumour line A unless noted; activity, negative = cell killing: at 46 µM (top of the series), tumour line A unless noted
# In short: as §2
# Tov-21-G = assay: Primary qHTS to identify gynecologic anti-cancer compounds using libraries of approved drugs and bioactive compounds (AID 1345084); details: Gynecologic cancer cell panel viability, ATPlite luminescence, 48 h; series mostly up to 57.5 µM; further: nearly all actives have a fitted effect of over 55% in size
# In short: as §1
# Tov112D = assay: as above; details: Gynecologic cancer cell panel viability, ATPlite luminescence, 48 h; series mostly up to 57.5 µM
# In short: as §1
# [2] = qHTS assay to identify inhibitors of the type 1 interferon - major histocompatibility complex class I in skeletal muscle: Counter screen cell viability and HiBit confirmation (AID 1347412); details: iHSKM muscle cells + IFN-b, HiBiT or CellTiter-Glo, 24 h; further: nearly all actives have a fitted effect of over 60% in size
# In short: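 Duplicate plates, pinned identically: one read for HiBiT-tagged endogenous HLA-B luminescence, the other for ATP-content viability via CellTiter Glo. Cells were genome-engineered human myoblasts given 4 ng/ml IFN-b; compounds 12-pt, 1:3 from 46 uM final; 24 hr exposure.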
# On the % scale 0 is the no-effect control and ±100 the full control effect; potency means the concentration at half of the fitted maximal effect; tags describe the fitted curve by direction and shape.
structure (smiles),measurement,setting,value
CNC(=O)c1ccc(-c2cnc3ncc(Cc4ccc5ncccc5c4)n3n2)cc1F,Potency,SKOV3,inactive
CC(C)C1CCC(C(=O)N[C@H](Cc2ccccc2)C(=O)O)CC1 (stereo partly drawn),Potency,SKOV3,inactive
O=C(NC(Cc1cc(=O)[nH]c2ccccc12)C(=O)O)c1ccc(Cl)cc1 (stereo not drawn),Potency,SKOV3,inactive
Cc1ccc(C(=O)c2cc(O)c(O)c([N+](=O)[O-])c2)cc1,Potency,PA-1,"inconclusive: 22.4 µM [cytotoxic, single point]"
same,Potency,astro,"inconclusive: 35.5 µM [inhibitor, single point]"
C#CCN[C@@H]1CCc2ccccc21,Potency,PA-1,inactive
same,Potency,[1],inactive
Cc1c(C)n(Cc2ccc(-c3ccccc3C(=O)O)cc2)c2ccc(C(=O)N[C@@H](C)c3ccc([N+](=O)[O-])cc3)cc12,Potency,PA-1,"inconclusive: 1.41 µM [cytotoxic, single point]"
same,Potency,SKOV3,"inconclusive: 0.562 µM [cytotoxic, single point]"
c1cnc2cc3c(cc2n1)C1CNCC3C1,Potency,SKOV3,"inconclusive: 7.08 µM [rising, full curve, poor fit]"
Cc1cc(=O)oc2cc(O)ccc12,Potency,PA-1,inactive
same,Potency,SKOV3,"inconclusive: 3.55 µM [cytotoxic, full curve, poor fit]"
same,Potency,[1],"inconclusive: 14.1 µM [inhibitor, partial curve]"
same,Potency,astro,inactive
C[C@@H](CN1CC(=O)NC(=O)C1)N1CC(=O)NC(=O)C1,Potency,PA-1,inactive
same,Potency,SKOV3,inactive
same,Potency,[1],"inconclusive: 35.5 µM [inhibitor, single point]"
CN[C@@H](C)C(=O)N[C@H]1CN(C(=O)CC(C)C)CC[C@H]2CC[C@@H](C(=O)NC(c3ccccc3)c3ccccc3)N2C1=O,Potency,PA-1,"inconclusive: 31.6 µM [cytotoxic, single point]"
same,Potency,SKOV3,active: 7.94 µM
same,Potency,Tov-21-G,active: 5.62 µM
same,Potency,Tov112D,"inconclusive: 31.6 µM [cytotoxic, partial curve, poor fit]"
CCCCC[C@H](O)C=C[C@H]1[C@H](O)CC(=O)[C@H]1CC=CCCCC(=O)O,Potency,SKOV3,inactive
CC(C)(C)OC(=O)N[C@H]1CCCCCC=C[C@@H]2C[C@@]2(C(=O)NS(=O)(=O)C2CC2)NC(=O)[C@@H]2C[C@@H](OC(=O)N3Cc4cccc(F)c4C3)CN2C1=O,Potency,SKOV3,inactive
Nc1cc(C(Cl)=C(Cl)Cl)c(S(N)(=O)=O)cc1S(N)(=O)=O,Potency,PA-1,inactive
same,Potency,Tov112D,inactive
CC(C)CC(=O)N[C@H](C(=O)N[C@H](C(=O)N[C@@H](CC(C)C)[C@@H](O)CC(=O)N[C@@H](C)C(=O)N[C@@H](CC(C)C)[C@@H](O)CC(=O)O)C(C)C)C(C)C (Isovaleryl-VV[Sta]A[Sta]-OH),Potency,SKOV3,"inconclusive: 3.16 µM [rising, full curve]"
COC(=O)[C@H](Cc1ccccc1)NC(=O)[C@@H](N)CC(=O)O (H-Asp-Phe-OMe),Potency,PA-1,inactive
same,Potency,[1],"inconclusive: 35.5 µM [inhibitor, single point] and inconclusive: 25.1 µM [inhibitor, partial curve]"
CC(C)(OCc1nn(Cc2ccccc2)c2ccccc12)C(=O)O,Potency,SKOV3,"inconclusive: 0.794 µM [rising, full curve, poor fit]"
same,Potency,Tov112D,inactive
CCC(=O)OCC(=O)[C@@]1(OC(=O)CC)[C@@H](C)C[C@@H]2[C@H]3CCC4=CC(=O)C=C[C@]4(C)[C@@]3(F)[C@@H](O)C[C@@]21C,Potency,[1],active: 11.2 µM
O=C(OC1C[C@H]2CC[C@@H](C1)[N+]21CCCC1)C(O)(c1ccccc1)c1ccccc1 (stereo partly drawn),Potency,[1],"inconclusive: 10 µM [inhibitor, partial curve, poor fit]"
NS(=O)(=O)c1ccc(Nc2nc(OCC3CCCCC3)c3[nH]cnc3n2)cc1,Potency,SKOV3,"inconclusive: 3.98 µM [cytotoxic, partial curve, poor fit]"
same,Potency,Tov-21-G,active: 15.8 µM
same,Potency,[2]; HiBiT,"inconclusive: 15.7 µM [inhibitor, partial curve]"
same,"activity change, negative = inhibition","[2]; Viability, at 45.9 µM (top of the series)",inactive: -13.9%
N#Cc1ccc(C(c2ccc(C#N)cc2)n2cncn2)cc1,Potency,[1],"inconclusive: 5.01 µM [inhibitor, partial curve]"
CN1CCN2c3ncccc3Cc3ccccc3C2C1 (stereo not drawn),Potency,[1],"inconclusive: 15.8 µM [inhibitor, partial curve]"

# Reference: PubChem BioAssay (NCATS)
